In paper PMC12136788:
Residue numbers refer to the chain shown, from its start. This is one part of the list.

T1: UNK ZnF1-3 (human, UniProt Q9C0B0 31-174)
T1 sequence: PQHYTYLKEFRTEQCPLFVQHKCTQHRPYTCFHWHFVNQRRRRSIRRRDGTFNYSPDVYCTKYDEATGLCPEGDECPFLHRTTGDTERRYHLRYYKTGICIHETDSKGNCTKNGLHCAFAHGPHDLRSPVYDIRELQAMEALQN

B1: 55453617_55469543_8065_CDS_ENSMUSG00000027799_ENSMUST00000029374|mouse|control|control (ssRNA)
RNA: GGGAGUUCUACAGUCCGACGAUCCCUAGGCGGAUGCGGCUCAAUGAGCAACUGAGAUGGCGUCUGUCCAAAGUUCUGUAUCUGUGCUUCCAUGGCCUCCCGGAGCACAGGGUCUGUGAUGCUGUCCAGGUUUACAGAGCCUUCCAACAGAGGAUUGAGCAUCA
B2: chr5:37680062:37680063:+_ENSMUSG00000029121_ENSMUST00000031004|mus_hu|mus_mus_mus_hu_False|98_98 (ssRNA)
RNA: GGGAGUUCUACAGUCCGACGAUCUUUGGGUGUAGCUGGCACCUCGUACACAGGACCGUCAUACAUGCCCCUGGAAACCCCUUGCAAUCCAAAAACCUUAUUCCUGAUUUUGACGCGCUGGUACAGGUGCUCCGGGAACGCCUUCAACAGAGGAUUGAGCAUCA
B3: 15468751_15468984_1553_CDS_ENSG00000164985_ENST00000380738|human|control|control (ssRNA)
RNA: GGGAGUUCUACAGUCCGACGAUCUCCUUCACCAACCAAGAACAUGUUCUUAAACUUGUUAUACAACAUUGUAGACUUUUCCAUGAUUACCUGACUAACUUUGAAUCGCCGUAUUUUUUUCAGUGUAGUAAUCAUCUCUGUGUGCAACAGAGGAUUGAGCAUCA
B4: chr10:61147818:61147819:+_ENSMUSG00000020088_ENSMUST00000020285|mus_mus|FALSE|FALSE (ssRNA)
RNA: GGGAGUUCUACAGUCCGACGAUCUAGUCUGUCAUCUUUCAGCAUGUGAAGAAGAGUGGUUUUGCCCGCAUUGUCCAAUCCUAAGAAUACAAGUUUUCCAGAUUUCUUGUAGAGUCCUAGGAACUGGAGCACACUGCUGAAGCCCAACAGAGGAUUGAGCAUCA
B5: chr4:138441076:138441077:-_ENSG00000189184_ENST00000507846|hu_hu|motif|central (ssRNA)
RNA: GGGAGUUCUACAGUCCGACGAUCACACAACAAAUAAAACAAUUGCAGUAACAAAAAUAUGAUUUUAUAAAUGUUCUUAUACGGAAAAUAAAAGCAAAAAUAUGAGAUCAUGCACUGGAGACAAAAGCUAAAAAUGAAUAGUUACAACAGAGGAUUGAGCAUCA
B6: chr9:95013113:95013114:-_ENSG00000196305_ENST00000443024|hu_hu|hu_hu_hu_mus_False|68_68 (ssRNA)
RNA: GGGAGUUCUACAGUCCGACGAUCCUCAGUCAGAAAGGGCGUGUAAGGGGCCAUCAGUCUGCACAGAGAAAGCAGAACACUGAACAGUGUCUCCAGAGCCAUGACACAGUCUUCCACCCCACUCUCACCCUUUAACCUCCUCCUCAACAGAGGAUUGAGCAUCA
B7: 107143695_107143815_2784_3pUTR_ENSG00000125266_ENST00000245323|human|control|control (ssRNA)
RNA: GGGAGUUCUACAGUCCGACGAUCGGAAUGAUGUUGUUUUUCCCAGAAGUAGCUGUCCAAUUUGUUUUUUUAAGCGCUGAGCAUUGGGACCACUUAAUUGCCACAAAUGAAUUUCACAUCUUCUGGUGUGUACUGUGUGCAACCCAACAGAGGAUUGAGCAUCA
B8: chr9:95013113:95013114:-_ENSG00000196305_ENST00000443024|hu_hu|hu_hu_hu_mus_False|68_78 (ssRNA)
RNA: B6 RNA with C63A
B9: chr3:32582686:32582687:-_ENSG00000144635_ENST00000273130|hu_hu|FALSE|FALSE (ssRNA)
RNA: GGGAGUUCUACAGUCCGACGAUCUCUCUGGGGAGAAGCCGGGAAGUCUUCUCCUGGCUCUACAUAUUCUUGGAAGUCUCUAAUCAACUUUUGUUCCAUUUGUUUCAUUUCUUCAGGAGGGAUUUUCAGUUUGUCAACAUGUUCCAACAGAGGAUUGAGCAUCA
B10: chr1:185277986:185277987:-_ENSG00000116679_ENST00000392007|hu_mus|motif|central (ssRNA)
RNA: GGGAGUUCUACAGUCCGACGAUCCUGCUUGACUCGGUCCAUCUUCAGCUUCUUGGCUGCAGAAUAAACAUCUUUUACGGAUUCCUUAUCAGCUUUCAACUGAGCCGUGUAUGCAUAAUUCAGCAAGACUUCAACAGCUUCUGGCAACAGAGGAUUGAGCAUCA
B11: chr6:57672499:57672500:+_ENSMUSG00000062190_ENSMUST00000050077|mus_mus|FALSE|FALSE (ssRNA)
RNA: GGGAGUUCUACAGUCCGACGAUCUCGAAGCAGGUAGGUCUGGUCACCAGUGACCCGGUACAGCUGCAGGUACAAAAGUGCUAUGCCUGUCCAACCAGUAUAUGCAGAGCAGUCAUGAGGGUCCGCUGUCUUCAGUCCUUCCUCCAACAGAGGAUUGAGCAUCA
B12: chr18:48442549:48442550:+_ENSG00000082212_ENST00000321341|hu_mus|motif|central (ssRNA)
RNA: GGGAGUUCUACAGUCCGACGAUCAAUUGAUCUAACAUGACCUCUGUCUGAGAUUGAAAUAAACAAUCCCUUAGGUCUCCGGAAGAUGUGCCCAUAUUGACAGCAGGCAAGACCAACUGUUGGCGUGUACACAAUCGGCAUCAGCAACAGAGGAUUGAGCAUCA
B13: chr1:235505951:235505952:+_ENSG00000152904_ENST00000391855|hu_hu|FALSE|FALSE (ssRNA)
RNA: GGGAGUUCUACAGUCCGACGAUCUUUAUAGGCUUUAGCUUCAAGCUCUUUAAGGGUAUUACGAGUGUAUUCAAAAGAACCUACAUCCUCAAGAUAAUGUACACAGUAUUUUUUUAUAUCUAUGUUUUCUGUUCUCUGGCGCAACAACAGAGGAUUGAGCAUCA
B14: chr3:176740097:176740098:-_ENSG00000177565_ENST00000430069|hu_mus|motif|central (ssRNA)
RNA: GGGAGUUCUACAGUCCGACGAUCUGUUUUGUAUACCACAAAAGGAGGCACUUUCAGUAUCUGCAAAAGGUGUUUAGUCCGGAAACAUACUCACCUAGAGGAUAACUCAGGAAAACAAUCUGUUACACUCUAAGACCUACUCCACAACAGAGGAUUGAGCAUCA

These binders were tested against T1, UNK ZnF1-3 (assay: nsRBNS (natural sequence RNA bind-n-seq); RBNS binding buffer (assumed for nsRBNS): 25 mM Tris pH 7.5, 150 mM KCl, 3 mM MgCl2, 0.01% Triton X-100, 500 ug/ml BSA, 20 U/ml SUPERase-In, 4 C; UNK is unkempt and MSI1 is Musashi-1; names of the RNAs are library labels; protein concentration not given here; high values mean tight binding).

Row | Binder | binding signal [enrichment R]
1 | B1 | 1.12
2 | B2 | 0.768
3 | B3 | 0.8
4 | B4 | 0.89
5 | B5 | 2.19
6 | B6 | 1.34
7 | B7 | 0.834
8 | B8 | 1.34
9 | B9 | 0.678
10 | B10 | 0.805
11 | B11 | 0.892
12 | B12 | 0.967
13 | B13 | 0.426
14 | B14 | 1.21
